Data published in the RNAGym collection of RNA variant scans (doi:10.1073/pnas.2313332121).
Variants at the floor of the assay are shown more often than the library holds them.

B1: TPR 5TU (parent)
chain: GGAUCUUCUCGAUCUAACAAAAAAGACAAAUCUGCCACAAAGCUUGAGAGCAUCUUCGGAUGCAGAGGCGGCAGCCUUCGGUGGCGCGAUAGCGCCAACGUUCUCAACUAUGACACGCAAAACGCGUGCUCCGUUGAAUGGAGUUUAUCAUG

Variants of: B1
Assay: polymerase ribozyme fitness, log enrichment relative to wild type (log ratio); higher = more active; in vitro selection for triplet polymerase activity
How it was run: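 After PCR construction and transcription, each subunit's mutant library from a heterodimeric triplet polymerase ribozyme was annealed with a biotinylated primer, the partner subunit and triplets. Incubation was frozen, at −7 °C, and extended constructs were gel-excised, bound to streptavidin beads and amplified by RT-PCR, in one selection round done in triplicate. Fitness is the logarithm of a genotype's enrichment divided by that of the wild type, from inverse-variance-weighted replicate averages of Illumina-sequenced inputs and outputs. The base of the logarithm is 2, and genotypes needed ≥10 input reads and ≥1 read per output.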

Polymerase ribozyme fitness (log ratio), ≤ -4.2:
C79A G136U U139A
C79A U134G A150C
C79G C85U G92A C95U U148A
C79G C87A C105G G141C
C79G C96A G126U U144G
C79G C105G U109G
C79G G80C G83A A122G C125U G140U
C79G G81A C85A U144A
C79G G83C G88A G92U G140U U145G A147G
C79G G84A U134G
C79G G94C
C79G G152A
C79U A91U A122G U134C U135A U148A
C79U C87A C99U U101C
C79U C93A C99A G126A G141U G152A
C79U C96A C129A G141A
C79U G81A C93U U102A
C79U U102A A107C C149A
G80A A98G C105A C118G A147C
G80A A98U U104C C105U A106C
G80A G94A C105G A107U
G80A U139A G143U U146C
G80C C85G A106C U139G
G80C C93A A120U U127G G141C
G80C C96G C105U
G80C G100A A115U G136C U139G
G80U C85A C96U C118U A120U G133U
G80U C85U G92A A98G C149A
G80U C93G A119U G141A A147U U148G
G80U G92A C149U
G81A C108U G140C
G81A G92A C103G A122U C125G G141A
G81A G94U C96A U104C G143U U148A A150C
G81A G128C G143C
G81C C87G G141C
G81C G88A U102G
G81U C87U C95G C116G U139A
U82A G86U C95U C96U A106C C131G
U82A G94U C132G
U82A U130G G141A U145G
U82G A113C C114U A147G
U82G C93G C96A
G83A A91U
G83A A107G G133U A137G
G83A C87G A89G
G83A C95A U111C C125U
G83A C96U C123G G126C A138C U148A
G83A C99A U109C
G83A G84U U135A A138C
G83A G92A A107G G143C
G83A G92C G112U A113U C114A C118G
G83A U104A G117U G136A U148C
G83C A107C G136C
G83C A110U U135A G141U
G83C C95A C116G
G83C C114A U139G A142G G152U
G83C G88C G126C C129G U135A G141C
G83U A106G U127A
G83U C87U C93U G100U A107U
G83U C93U U127C U144C
G83U C105G C131U A142C
G83U C129G U148A
G83U G141A G143C A150G
G84A A91G U127G
G84A A110G G136A A147C
G84A A110U A113C A115U C116U
G84A C87U A97U A120C G143A U144G
G84A C108G A110G
G84C G143U
G84C U148A
G84U A107U G140A
G84U A137C
G84U C87G G141C U145C
G84U G88C G117A C123U
G84U G100U
C85A A91U C96U A97U C105A C123U A147G
C85A A115G G143C
C85A C93A
C85A C95G C96A U135C
C85A C96G G141C U146C
C85A C99G A142G
C85A C118G A137C U151A
C85A G88C C103G A110C
C85A G92C G94A C99A C108A A122U
C85G A106U A137C
C85G A106U A137C A138C U148A
C85G C93A G124A U139G G141C A150C
C85G C93U C118A A119U A122U A137G
C85G C95A G100A A110C
C85G C95U C99U C116A G128A
C85G C96A G143C
C85G C105U C149A
C85G C114A U146C
C85G G88U A89G C93U
C85G G100U
C85G U102G
C85U A113C C118G A122G U139A
C85U A138C
C85U C87G
C85U C93A A97U G100C U134A C149G
C85U G133A U144C
C85U U90G
G86A A97U C108A C114A U135G
G86A C87A C116U
G86A C105A C116G C125G
G86A G92C C105G C132A A137G
G86A U90A A138G U151G
G86C C87U G152A
G86C C103G A120U
G86C G88C
G86C U104G
G86U A91C U104C U111C A115U C118A
G86U G92U C105G
G86U G136C G152U
G86U U90G G143A
G86U U104G C125U
C87A A97C U134A
C87A A137C
C87A C95A C96G A106U
C87A C96G
C87A C103G C105G G117A
C87A C123U
C87A G100C C131G
C87A G124C
C87A G128A U135C
C87A G136C
C87A U101C G126U
C87A U102A G141A
C87A U135G G141U
C87G
C87G A89U U90G A150G
C87G A97G A121U
C87G A113C
C87G A119C
C87G A142C
C87G C93A C99A
C87G C95U A107G
C87G C118A
C87G C118G
C87G C129A
C87G G100A C116U
C87G G100C U139C C149G
C87G G140U
C87G U104C C149A
C87G U144C A150U
C87G U145A
C87U A91G C93U G133U U135G
G88A A98G U102C A115C C116A
G88A A106U A138U U139G G143U U144G
G88A C95G C116A A119G G136A U145C
G88A C99G
G88A C99U
G88A U134G
G88A U148C
G88A U151C
G88C A113G C114A
G88C A119G
G88C C99G A142U
G88C G94U
G88C U101A G124A C125U
G88U C96A
G88U C118G
G88U C125A U144A
G88U U139C
A89U A91G U148A
A89U C99G U151A
A89U C103G A110C
